Data reported in patent US20260103529A1, “Amino Acid Sequences Directed Against the Melanocortin 4 Receptor and Polypeptides Comprising the Same for the Treatment of MC4R-Related Diseases and Disorders” (Confo Therapeutics N.V., priority 2022, published 2026).

T1: human wild type MC4R (Homo sapiens, UniProt P32245)
T1 sequence (P32245 1-332): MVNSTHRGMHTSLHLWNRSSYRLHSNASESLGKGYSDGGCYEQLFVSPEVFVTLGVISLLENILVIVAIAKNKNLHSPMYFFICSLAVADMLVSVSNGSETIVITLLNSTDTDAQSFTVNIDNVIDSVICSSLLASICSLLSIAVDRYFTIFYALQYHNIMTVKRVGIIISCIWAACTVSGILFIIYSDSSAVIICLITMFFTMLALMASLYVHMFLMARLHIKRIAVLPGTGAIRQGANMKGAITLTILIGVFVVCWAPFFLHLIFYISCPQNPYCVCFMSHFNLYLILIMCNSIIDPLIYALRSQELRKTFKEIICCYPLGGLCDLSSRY


Legend:
DIO mice = assay: Diet-induced obese (DIO) mouse study, 14-day subcutaneous administration; type: in vivo
Procedure: The mouse studies described in Examples 2 and 3 were performed at a fully AAALAC accredited unit (Gubra, Denmark), and all animal experiments were conducted in accordance with the CRO's bioethical guidelines, which are fully compliant to internationally accepted principles for the care and use of laboratory animals. All experiments were licensed by the Danish Animal Experimentation Council. This animal model is based on male C57BI/6J mice that are fed for a minimum of 18 weeks a 60% high fat diet that result in rapid weight gain. The mice were obtained from commercial vendors in Europe and United States transferred to Gubra's animal unit. The animal room environment is controlled (targeted ranges: temperature 21±2° C.; relative humidity 50±10%). The animals are maintained on a reversed 12 h light/dark cycle and have access to plenty of bedding material, shelters and chewing sticks. Animals were dosed just before lights went off.
Male DIO mice (5 weeks of age at time of arrival and HF diet induction, 45 weeks of age at study start, n=50) had ad libitum access to 60% high fat diet (D12492, Research diets) and water. On study day−2, the mice were randomized into five treatment groups (n=10) based on body weight. […] Body weight and food intake were measured daily starting from day−3. On the day of termination, plasma samples were collected from the groups receiving pN2113. At termination, the livers were weighed, and liver samples collected for all groups.

MC4R = assay: Radioligand displacement, CHO stable cell line; type: binding; conditions: mean ± spread, n = 2
human wild type MC4R = biological target: T1, human wild type MC4R; assay: cAMP GloSensor assay, MC4R; type: cell-based; set-up: Flag; expressed in transfected cells; host or cells: HEK293T; conditions: Promega GloSensor, HEK293 transiently transfected, real-time
Procedure: To confirm MC4R activation, dose-dependent nanobody-induced cAMP signaling was assessed (Lance Ultra HTRF). […] Binding of pN162 to the human melanocortin receptor subtypes MC1R, MC2R, MC3R, MC4R or MC5R transiently expressed as Flag-tagged receptors in HEK293T cells was assessed by flow cytometry.
HEK 293T cells were routinely maintained at 37° C., 5% CO2, under humidified atmosphere in Dulbecco's modified Eagle's medium (DMEM, Gibco, cat. no. 41966-029) supplemented with 10% heat-inactivated fetal bovine serum. In preparation of the experiments, cells were plated on poly-L-lysine coated white 96-well plates (Costar: 3917) at the density of 3,00E+04 cells/well. At the moment of seeding, cells were transfected with 25 ng of human MC4R in pcDNA3.1 (+) and 50 ng of p22F GLoSensor plasmid (Promega Corporation), empty pcDNA3.1 (+) vector was added to obtain 100 ng of total DNA, using XtremeGene HP (Roche). […] Next, background luminescence level was recorded using the En Vision 2104 Multilabel Plate Reader (Perkin Elmer). […] After addition of 10 μl of samples luminescence was recorded in a kinetic mode using the En Vision 2104 Multilabel Plate Reader (Perkin Elmer). Data were analyzed using GraphPad Prism 8 by applying nonlinear regression (curve fit).

[1] = pN2113 40 and 100 mg/kg SC QD 14 days

EC50 (human wild type MC4R) [nM] | Molecule | total area under the curve (tAUC) of the relative body weight (day 0-14) (DIO mice; pN2113 40 and 100 mg/kg SC QD) | absolute body weight at the end of the treatment period (day 14) (DIO mice; [1]) | relative body weight at the end of the treatment period (day 14) (DIO mice; [1]) | Radioligand displacement (MC4R) [nM]
– | pN2113: single domain antibody (VHH) hIgG1 FC fusion of pN2121, SEQ ID NO: 193 (protein, pN2113 = pN2121-huFc_IgG1 L234A _L235A) QVQLVESGGGLVQPGGSLRLSCAASGSAFSLHWMGWYRQTPGKQRELVAEITKSGSTNYADSAKGRFTISRDNAKNTVYLQMNSLRPEDTAVYYCKARTGRIVRPVDYWGQGTLVTVSS[in this place human IgG1 Fc with changes] | significantly reduced | no significant effect | no significant effect | –
34.7 ± 8.9 | pN0162-huFcIgG1_N297A: Fc-based construct of pN0162 with human IgG1 Fc N297A, SEQ ID NO: 190 (protein, pN0162-huFcIgG1_N297A) QVQLVESGGGLVQPGGSLRLSCAASGSAFSLNVMGWYRQTPGNQRALVAEITKDGSTNYADSAKGRFTISRDNAKNTVHLQMDSLKPEDTAVYYCKARTGRIVRPLDYWGQGTQVTVSS[in this place human IgG1 Fc with changes] | – | – | – | 0.89 ± 0.39
